Tests used:
[1] = tested on: Blumeria graminis f. sp. tritici (Erysiphe graminis f. sp. tritici); experiment: Example B4 Blumeria graminis f. sp. tritici/wheat/leaf disc preventative (powdery mildew); conditions: foliar, read-out: control of Blumeria graminis f. sp. tritici
Method: Blumeria graminis f. Sp. Tritici (Erysiphe graminis f. Sp. Tritici)/Wheat/Leaf Disc Preventative (Powdery Mildew on Wheat)
Wheat leaf segments cv. Kanzler are placed on agar in a multiwell plate (24-well format) and sprayed with the formulated test compound diluted in water. The leaf disks are inoculated by shaking powdery mildew infected plants above the test plates 1 day after application. The inoculated leaf disks are incubated at ° C. and 60% rh under a light regime of 24 h darkness followed by 12 h light/12 h darkness in a climate chamber and the activity of a compound is assessed as percent disease control compared to untreated when an appropriate level of disease damage appears on untreated check leaf segments (6-8 days after application).

[2] = tested on: Puccinia recondita f. sp. tritici; experiment: Example B13 Puccinia recondita f. sp. tritici/wheat/leaf disc preventative (brown rust); conditions: foliar, wheat leaf disc preventative, compared to untreated control
Method: Puccinia recondita f. Sp. Tritici/Wheat/Leaf Disc Preventative (Brown Rust)
Wheat leaf segments cv. Kanzler are placed on agar in multiwell plates (24-well format) and sprayed with the formulated test compound diluted in water. The leaf disks are inoculated with a spore suspension of the fungus 1 day after application. The inoculated leaf segments are incubated at 19° C. and 75% rh under a light regime of 12 h light/12 h darkness in a climate cabinet and the activity of a compound is assessed as percent disease control compared to untreated when an appropriate level of disease damage appears in untreated check leaf segments (7-9 days after application).

Structure (SMILES): COCC(=O)N(c1cc(F)nc(F)c1)c1nc(C(=O)NC2CCC23CCCC3)c(C)s1 (centres unmarked) [I.c.600, 2-[(2,6-difluoro-4-pyridyl)-(2-methoxyacetyl)amino]-5-methyl-N-spiro[3.4]octan-3-yl-thiazole-4-carboxamide]
- pest or weed control at 200 ppm [1]: ≥ 80%
- pest or weed control at 200 ppm [2]: ≥ 80%
